IC50 is the fitted dose that halves viability relative to control wells, and lower means more sensitive; a limit (>, <) means that the fit lies beyond the doses tested. AUC is the area under the same curve over the 256-fold range up to the top dose, as a fraction: 1 means no effect, lower means more sensitive. For part of these data: A top dose marked as inferred was calculated from the reported fits. For part of these data: An entry number marks a drug with two screens in the source, which often give different values.
Legend:
Assay in all cases: Viability of human cancer cell lines after 72 h of drug (GDSC screen)
[1] = compound: CN(c1ncccc1CNc1nc(Nc2ccc3c(c2)CC(=O)N3)ncc1C(F)(F)F)S(C)(=O)=O [PF-562271]; conditions: top dose 2.56 µM; top dose inferred
Description: (§1)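 Human cancer cell lines in 384-well plates, medium with 10% serum, drug for 72 h over a 256-fold dose range (nine 2-fold or five 4-fold steps up to the top dose). Adherent lines were fixed and stained with the nucleic acid dye Syto60, suspension lines read with resazurin; signal relative to control wells, capped at 0 and 100%. One two-parameter sigmoid per drug and line, fitted in a mixed model over all curves with the slope shared within a line.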

[2] = compound: CN(C)C/C=C/C(=O)Nc1cc2c(Nc3ccc(F)c(Cl)c3)ncnc2cc1O[C@H]1CCOC1 [Afatinib]
Description: as §1

[3] = compound: CC[C@]1(O)C[C@@H]2CN(CCc3c([nH]c4ccccc34)[C@@](C(=O)OC)(c3cc4c(cc3OC)N(C)[C@H]3[C@@](O)(C(=O)OC)[C@H](OC(C)=O)[C@]5(CC)C=CCN6CC[C@]43[C@@H]65)C2)C1 [Vinblastine]; conditions: top dose 0.1 µM; top dose inferred
Description: as §1

[4] = compound: CC1(C)CC(=O)c2c(C(F)(F)F)nn(-c3ccc(C(N)=O)c(N[C@H]4CC[C@H](O)CC4)c3)c2C1 [SNX-2112]; conditions: top dose 2.56 µM
Description: as §1

[5] = compound: O=C(NC1CC1)c1cccc(-c2ccc3c(NC(=O)C4CC4)n[nH]c3c2)c1 [XMD13-2]; conditions: top dose 10.24 µM; top dose inferred
Description: as §1

[6] = top dose 0.5 µM, screen: GDSC drug entry 1032
[7] = top dose 10 µM, screen: GDSC drug entry 1377, top dose inferred

NCI-H209 (small cell lung carcinoma, suspension)
AUC [1]: 0.97 | IC50 [1]: > 2560 nM | AUC [2, 6]: 0.986 | IC50 [2, 6]: > 500 nM | AUC [2, 7]: 0.928 | IC50 [2, 7]: > 10000 nM | AUC [3]: 0.601 | IC50 [3]: 12.1 nM | AUC [4]: 0.861 | IC50 [4]: 2420 nM | AUC [5]: 0.823 | IC50 [5]: 6630 nM

NCI-H211 (small cell lung carcinoma, adherent)
AUC [1]: 0.901 | IC50 [1]: > 2560 nM | AUC [2, 6]: 0.98 | IC50 [2, 6]: > 500 nM | AUC [2, 7]: 0.966 | IC50 [2, 7]: > 10000 nM | AUC [3]: 0.469 | IC50 [3]: 5.14 nM | AUC [4]: 0.298 | IC50 [4]: 44 nM | AUC [5]: 0.789 | IC50 [5]: 4380 nM

NCI-H322M (lung adenocarcinoma, suspension)
AUC [1]: 0.975 | IC50 [1]: > 2560 nM | AUC [2, 6]: 0.926 | IC50 [2, 6]: > 500 nM | AUC [2, 7]: 0.938 | IC50 [2, 7]: > 10000 nM | AUC [3]: 0.902 | IC50 [3]: > 100 nM | AUC [4]: 0.883 | IC50 [4]: > 2560 nM | AUC [5]: 0.987 | IC50 [5]: > 10200 nM

NCI-H345 (small cell lung carcinoma, suspension)
AUC [1]: 0.99 | IC50 [1]: > 2560 nM | AUC [2, 6]: 0.988 | IC50 [2, 6]: > 500 nM | AUC [2, 7]: 0.985 | IC50 [2, 7]: > 10000 nM | AUC [3]: 0.92 | IC50 [3]: > 100 nM | AUC [4]: 0.989 | IC50 [4]: > 2560 nM | AUC [5]: 0.99 | IC50 [5]: > 10200 nM

NCI-H441 (lung adenocarcinoma, adherent)
AUC [1]: 0.94 | IC50 [1]: > 2560 nM | AUC [2, 6]: 0.94 | IC50 [2, 6]: > 500 nM | AUC [2, 7]: 0.864 | IC50 [2, 7]: > 10000 nM | AUC [3]: 0.855 | IC50 [3]: > 100 nM | AUC [4]: 0.944 | IC50 [4]: > 2560 nM | AUC [5]: 0.967 | IC50 [5]: > 10200 nM

NCI-H446 (small cell lung carcinoma, semi-adherent)
AUC [1]: 0.969 | IC50 [1]: > 2560 nM | AUC [2, 6]: 0.985 | IC50 [2, 6]: > 500 nM | AUC [2, 7]: 0.908 | IC50 [2, 7]: > 10000 nM | AUC [3]: 0.419 | IC50 [3]: 3.68 nM | AUC [4]: 0.436 | IC50 [4]: 106 nM | AUC [5]: 0.673 | IC50 [5]: 2030 nM

NCI-H520 (lung squamous cell carcinoma, adherent)
AUC [1]: 0.971 | IC50 [1]: > 2560 nM | AUC [2, 6]: 0.978 | IC50 [2, 6]: > 500 nM | AUC [2, 7]: 0.985 | IC50 [2, 7]: > 10000 nM | AUC [3]: 0.727 | IC50 [3]: 28.3 nM | AUC [4]: 0.493 | IC50 [4]: 153 nM | AUC [5]: 0.812 | IC50 [5]: 5690 nM

NCI-H524 (small cell lung carcinoma, suspension)
AUC [1]: 0.978 | IC50 [1]: > 2560 nM | AUC [2, 6]: 0.99 | IC50 [2, 6]: > 500 nM | AUC [2, 7]: 0.99 | IC50 [2, 7]: > 10000 nM | AUC [3]: 0.495 | IC50 [3]: 6.08 nM | AUC [4]: 0.99 | IC50 [4]: > 2560 nM | AUC [5]: 0.795 | IC50 [5]: 4180 nM

NCI-H526 (small cell lung carcinoma, suspension)
AUC [1]: 0.911 | IC50 [1]: > 2560 nM | AUC [2, 6]: 0.973 | IC50 [2, 6]: > 500 nM | AUC [2, 7]: 0.989 | IC50 [2, 7]: > 10000 nM | AUC [3]: 0.546 | IC50 [3]: 8.28 nM | AUC [4]: 0.765 | IC50 [4]: 899 nM | AUC [5]: 0.906 | IC50 [5]: > 10200 nM

NCI-H596 (lung adenocarcinoma, adherent)
AUC [1]: 0.949 | IC50 [1]: > 2560 nM | AUC [2, 6]: 0.941 | IC50 [2, 6]: > 500 nM | AUC [2, 7]: 0.941 | IC50 [2, 7]: > 10000 nM | AUC [3]: 0.85 | IC50 [3]: > 100 nM | AUC [4]: 0.689 | IC50 [4]: 638 nM | AUC [5]: 0.91 | IC50 [5]: > 10200 nM

NCI-H630 (large intestine, adherent)
AUC [1]: 0.948 | IC50 [1]: > 2560 nM | AUC [2, 6]: 0.909 | IC50 [2, 6]: > 500 nM | AUC [2, 7]: 0.913 | IC50 [2, 7]: > 10000 nM | AUC [3]: 0.926 | IC50 [3]: > 100 nM | AUC [4]: 0.785 | IC50 [4]: 1180 nM | AUC [5]: 0.974 | IC50 [5]: > 10200 nM

NCI-H647 (non-small cell lung carcinoma, adherent)
AUC [1]: 0.919 | IC50 [1]: > 2560 nM | AUC [2, 6]: 0.982 | IC50 [2, 6]: > 500 nM | AUC [2, 7]: 0.973 | IC50 [2, 7]: > 10000 nM | AUC [3]: 0.618 | IC50 [3]: 13.4 nM | AUC [4]: 0.455 | IC50 [4]: 120 nM | AUC [5]: 0.809 | IC50 [5]: 5660 nM

NCI-H650 (lung adenocarcinoma, adherent)
AUC [1]: 0.942 | IC50 [1]: > 2560 nM | AUC [2, 6]: 0.961 | IC50 [2, 6]: > 500 nM | AUC [2, 7]: 0.985 | IC50 [2, 7]: > 10000 nM | AUC [3]: 0.653 | IC50 [3]: 17.3 nM | AUC [4]: 0.384 | IC50 [4]: 74.2 nM | AUC [5]: 0.928 | IC50 [5]: > 10200 nM

NCI-H716 (large intestine, suspension)
AUC [1]: 0.962 | IC50 [1]: > 2560 nM | AUC [2, 6]: 0.979 | IC50 [2, 6]: > 500 nM | AUC [2, 7]: 0.972 | IC50 [2, 7]: > 10000 nM | AUC [3]: 0.489 | IC50 [3]: 5.78 nM | AUC [4]: 0.492 | IC50 [4]: 151 nM | AUC [5]: 0.921 | IC50 [5]: > 10200 nM

NCI-H720 (lung carcinoid, suspension)
AUC [1]: 0.992 | IC50 [1]: > 2560 nM | AUC [2, 6]: 0.981 | IC50 [2, 6]: > 500 nM | AUC [2, 7]: 0.98 | IC50 [2, 7]: > 10000 nM | AUC [3]: 0.713 | IC50 [3]: 23.5 nM | AUC [4]: 0.934 | IC50 [4]: > 2560 nM | AUC [5]: 0.988 | IC50 [5]: > 10200 nM

NCI-H727 (lung carcinoid, adherent)
AUC [1]: 0.923 | IC50 [1]: > 2560 nM | AUC [2, 6]: 0.928 | IC50 [2, 6]: > 500 nM | AUC [2, 7]: 0.908 | IC50 [2, 7]: > 10000 nM | AUC [3]: 0.814 | IC50 [3]: > 100 nM | AUC [4]: 0.673 | IC50 [4]: 673 nM | AUC [5]: 0.943 | IC50 [5]: > 10200 nM

NCI-H747 (large intestine, adherent)
AUC [1]: 0.892 | IC50 [1]: > 2560 nM | AUC [2, 6]: 0.938 | IC50 [2, 6]: > 500 nM | AUC [2, 7]: 0.729 | IC50 [2, 7]: 3290 nM | AUC [3]: 0.848 | IC50 [3]: > 100 nM | AUC [4]: 0.574 | IC50 [4]: 266 nM | AUC [5]: 0.917 | IC50 [5]: > 10200 nM

NCI-H810 (large cell lung carcinoma, adherent)
AUC [1]: 0.8 | IC50 [1]: 1180 nM | AUC [2, 6]: 0.987 | IC50 [2, 6]: > 500 nM | AUC [2, 7]: 0.985 | IC50 [2, 7]: > 10000 nM | AUC [3]: 0.823 | IC50 [3]: 55.9 nM | AUC [4]: 0.473 | IC50 [4]: 136 nM | AUC [5]: 0.814 | IC50 [5]: 5290 nM

NCI-H847 (small cell lung carcinoma, adherent)
AUC [1]: 0.918 | IC50 [1]: > 2560 nM | AUC [2, 6]: 0.993 | IC50 [2, 6]: > 500 nM | AUC [2, 7]: 0.991 | IC50 [2, 7]: > 10000 nM | AUC [3]: 0.803 | IC50 [3]: 38.8 nM | AUC [4]: 0.218 | IC50 [4]: 29.7 nM | AUC [5]: 0.825 | IC50 [5]: 4640 nM

NCI-H1048 (small cell lung carcinoma, adherent)
AUC [1]: 0.929 | IC50 [1]: > 2560 nM | AUC [2, 6]: 0.928 | IC50 [2, 6]: > 500 nM | AUC [2, 7]: 0.988 | IC50 [2, 7]: > 10000 nM | AUC [3]: 0.498 | IC50 [3]: 6.18 nM | AUC [4]: 0.313 | IC50 [4]: 50.9 nM | AUC [5]: 0.943 | IC50 [5]: > 10200 nM

NCI-H1092 (small cell lung carcinoma, suspension)
AUC [1]: 0.985 | IC50 [1]: > 2560 nM | AUC [2, 6]: 0.988 | IC50 [2, 6]: > 500 nM | AUC [2, 7]: 0.983 | IC50 [2, 7]: > 10000 nM | AUC [3]: 0.963 | IC50 [3]: > 100 nM | AUC [4]: 0.543 | IC50 [4]: 210 nM | AUC [5]: 0.918 | IC50 [5]: > 10200 nM

Reference: the supplement of paper PMC4967469
